Laboratory results: PubChem BioAssay AID1347073 (National Center for Advancing Translational Sciences (NCATS), 2019)
About 200 (0.44%) of roughly 45,000 compounds were called active. About 7% were inconclusive and are not listed. The call rests on the fitted dose curve; in most records, active means well fitted activation curve with a large enough effect; inconclusive means small, poorly fitted or top-dose-only effect; inactive means no such curve, though single readings can be large or run the other way. The list shows a part of the results.

Experiment: qHTS of TDP-43 Inhibitors: NCGC Sytravon Library Screen; further: 0% is about no effect; nearly all actives have a fitted effect of over 55% in size
Details: yeast TDP-43 toxicity rescue, BacTiter-Glo growth, 24 h; series mostly up to 46.1 µM; growth rescue (activation): at the top concentration
In short: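 TDP-43-expressing yeast, pregrown in raffinose, seeded at OD600 0.02 in galactose medium with compound for 24 hr at 30 deg C. Growth read by BacTiter-Glo luminescence, so rescue of toxicity appears as activation.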

| SMILES | growth rescue (activation) |
| --- | --- |
| CCCC(=O)Nc1ccc(Cl)c(NC(=S)NC(=O)c2ccco2)c1 | inactive: 15.7% |
| Cc1ccc(/C=N/N2CCN(C3c4ccccc4-c4ccccc43)CC2)s1 | inactive: -0.512% |
| CCn1c(SCC(=O)NC2CCCCC2)nnc1-c1ccccc1F | inactive: -3.89% |
| OC(c1ccc(F)cc1)c1nc(-c2cncnc2)cs1 (centres undefined) | inactive: 11.8% |
| COc1ccc(-c2nnn(CC(=O)N(Cc3ccco3)C(C(=O)NCC3CCCO3)c3ccco3)n2)cc1 (centres undefined) | inactive: -16.6% |
| CCn1c(CNC(=O)c2ccco2)nnc1SCC(=O)c1ccc(F)cc1 | inactive: -0.316% |
| O=C(CN1CCN(S(=O)(=O)c2ccccc2F)CC1)Nc1ccccc1C(=O)c1ccccc1 | inactive: 15.3% |
| O=C(COC(=O)/C=C/c1ccccc1[N+](=O)[O-])Nc1ccc(OCc2ccccc2)cc1 | inactive: 4.59% |
| O=C(O)CN1C(=O)/C(=C\c2cc([N+](=O)[O-])ccc2OCc2ccccc2Cl)SC1=S | inactive: -0.786% |
| O=C(N/N=C/c1ccc[nH]1)c1ccc([N+](=O)[O-])cc1 | inactive: -9.77% |
| Cc1ccc(C(O)c2ncc(-c3cccc(C(F)(F)F)c3)[nH]2)cc1F (centres undefined) | inactive: 4.96% |
| CC1(C)Oc2ccc(C(=O)N/N=C/c3ccc(O)cc3)cc2NC1=O | inactive: 1.97% |
| Cc1ccc(NP(=O)(c2ccc(N(C)C)cc2NC(=O)c2cccs2)N2CCOCC2)cc1 (centres undefined) | inactive: 2.12% |
| Cc1ccc(S(=O)(=O)NCCCNc2ccc([N+](=O)[O-])cc2)cc1 | inactive: 12.3% |
| COc1ccc(OC)c(Nc2nc(NCCO)c3ccccc3n2)c1 | inactive: 18.1% |
| CCOC(=O)CN(C(=O)CNC(=O)c1ccco1)C(C(=O)NC1CCCCC1)c1cccnc1 (centres undefined) | inactive: 10.6% |
| Cc1cccc(C(=O)NCCNC(=O)c2ccco2)c1 | inactive: -35.9% |
| Cc1ccc(C(=O)NCCNS(=O)(=O)c2ccccc2)cn1 | inactive: 0.749% |
| CCOC(=O)C1(Cc2cccc(OC)c2)CCN(C(C)CC(C)(C)O)CC1 (centres undefined) | inactive: 12% |
| C=CCOc1ccc(/C=C2\SC(=S)N(NS(=O)(=O)c3ccc(C)cc3)C2=O)cc1 | inactive: 7.88% |
| O=C(c1ccc2c(c1)N(Cc1ccccc1)C(=O)c1ccccc1S2(=O)=O)N1CCC(Cc2ccccc2)CC1 | inactive: 3.65% |
| CC1CCCC(C)N1C(=O)COC(=O)CCc1nc2ccccc2c(=O)[nH]1 (centres undefined) | inactive: 25.1% |

| SMILES | growth rescue (activation) |
| --- | --- |
| O=C(Nc1ccnn1C1CCN(C(=O)c2ccc(F)cc2)CC1)C1CCOC1 (centres undefined) | inactive: 7.61% |
| Cc1ccc(NC(=O)C/C(N)=N/OC(=O)Nc2ccc(C)c(Cl)c2)cc1 | inactive: 11% |
| CNc1nnc(-c2ccc(C)cc2)c2ccccc12 | inactive: -14.9% |
| COc1cccc(C(=O)N(C)CC(=O)Nc2ccc(F)c(F)c2F)c1 | inactive: -6.88% |
| CC1CN(C(=O)[C@@H]2CCCN2S(=O)(=O)c2ccc(Cl)cc2)CC(C)O1 (some centres undefined) | inactive: 17.8% |
| CCCCC(=O)NCc1ccc(Cl)cc1 | inactive: 5.47% |
| CCC(C)[C@H](NC(=O)N1CCC(C)CC1)C(=O)O (some centres undefined) | inactive: 24.2% |
| O=C(NCCc1ccccn1)C1CCCN1S(=O)(=O)c1ccc(Cl)cc1 (centres undefined) | inactive: -1.75% |
| CCNC(=O)NC(=O)COC(=O)c1cccc(NS(=O)(=O)/C=C/c2ccccc2)c1 | inactive: 2.27% |
| O=C(Nc1ccccn1)c1ccc(Cl)c([N+](=O)[O-])c1 | inactive: 9.3% |
| CCN(CC)S(=O)(=O)c1ccc(NC(=O)c2ccc(N3CCCC3=O)cc2)cc1 | inactive: 16.9% |
| CN(C)C(CNC(=O)CCC(=O)c1ccc(Br)cc1)c1ccccc1 (centres undefined) | inactive: -0.188% |
| Cc1ccc(NC(=S)N(Cc2cccs2)Cc2cc3cc(C)cc(C)c3[nH]c2=O)cc1 | inactive: 13% |
| Cc1ccc(NC(=O)CCC(=O)NNC(=O)c2ccccc2)c(C)c1 | inactive: 2.88% |
| Cc1ccc(CNC(=O)Nc2cccs2)cc1 | inactive: 11.9% |
| Cn1cc(CNCC2CCCO2)c(-c2ccc(Oc3ccccc3)cc2)n1 (centres undefined) | inactive: 10.6% |
| Cc1ccnc(NCc2ccccc2O)c1 | inactive: 2.83% |
| CN1c2ccccc2C(=O)NC1c1ccc(Cl)cc1 (centres undefined) | inactive: 14.8% |
| CCN1CCc2nc3sc(C(=O)N4CCc5ccccc5C4)c(N)c3cc2C1 | inactive: 22.4% |
| O=C1N/C(=C/c2ccc(Br)cc2)C(O)=C1C=NCc1ccccc1 | inactive: 8.5% |
| O=S(=O)(CCOc1ccccc1)N1CCOCC1 | inactive: 9.15% |
| CC(=O)NCCNc1ccc([N+](=O)[O-])cc1C#N | inactive: 16.6% |

| SMILES | growth rescue (activation) |
| --- | --- |
| NS(=O)(=O)c1ccc(CNC(=O)c2ccc(NS(=O)(=O)c3cccs3)cc2)cc1 | inactive: 24.3% |
| COc1ccccc1CC(=O)Nc1ccc([N+](=O)[O-])cc1O | inactive: -23% |
| CCOc1ccc2nc(SCC(=O)Nc3cc(C)on3)c(C)cc2c1 | inactive: 6.18% |
| Cc1cc(NC(=O)CS(=O)(=O)Cc2ccccc2)no1 | inactive: -4.67% |
| O=C(c1cc(S(=O)(=O)N2CCCCC2)c(Cl)cc1N1CCOCC1)N1CCOCC1 | inactive: -0.141% |
| CN(C)CCNC(=O)c1ccc2c(c1)N(Cc1ccccc1)C(=O)c1ccccc1S2(=O)=O | inactive: 10.1% |
| CCN(CC)S(=O)(=O)c1ccc(C(=O)N2CCc3ccccc32)cc1 | inactive: 5.51% |
| CN1C(=O)N(C)C2(c3ccccc3)NNC(N)=NC12c1ccccc1 (centres undefined) | inactive: -2.68% |
| Cc1cc(C)n2ncc(C(=O)Nc3cccc(O)c3)c2n1 | inactive: -4.92% |
| COc1ccc(C(C(=O)NCC2CCCO2)N(C(=O)CNC(=O)c2cccs2)c2ccccc2C)cc1OC (centres undefined) | inactive: 4.9% |
| O=C1/C(=C/c2ccc(O)cc2)SC(=S)N1CC1CCCO1 (centres undefined) | inactive: 3.77% |
| O=C(O)c1cccc(Nc2ncnc3ccc(Br)cc23)c1 | inactive: 17.5% |
| CCOC(=O)c1ccc(S(=O)(=O)NCCN(CC)CC)cc1 | inactive: 3.64% |
| COC(=O)c1cc(NC(=O)CN(C)Cc2ccccc2)cc(C(=O)OC)c1 | inactive: 3.78% |
| CCNC(=O)COc1ccc(CC)cc1 | inactive: 2.15% |
| O=C(CN1CCN(C(c2ccccc2)c2ccccc2)CC1)NCc1ccccc1 | inactive: 11.9% |
| O=C(Nc1ccc(NC(=O)c2ccc(Cl)cc2Cl)cc1)c1ccc2c(c1)OCO2 | inactive: -6.41% |
| COc1ccc(Cc2nc3ccc(S(N)(=O)=O)cc3[nH]2)cc1OC | inactive: -1.64% |
| COc1ccc(N2CC(C(=O)NCc3ccco3)CC2=O)cc1 (centres undefined) | inactive: -6.36% |
| CC1CCN(c2cc(N3CCN(C(=O)c4ccc(F)c(F)c4)CC3)c([N+](=O)[O-])cc2F)CC1 | inactive: 21% |
| O=C(COC(=O)c1cc(=O)c2ccccc2o1)NC1CCCC1 | inactive: 9.11% |
| COC(=O)CCCN=C1SCCN1Cc1ccccc1 | inactive: 9.09% |

| SMILES | growth rescue (activation) |
| --- | --- |
| CC1(C(=O)NCc2ccc(C(F)(F)F)cc2)CCN1Cc1c(F)cccc1F (centres undefined) | inactive: 2.6% |
| O=C(CSc1c2c(nc3cc(Cl)ccc13)CCCC2)NCCN1CCOCC1 | inactive: -6.47% |
| COc1cc(NC(=S)NCCCN2CCOCC2)c(OC)cc1NC(=O)c1ccco1 | inactive: -8.21% |
| CCc1cccc(NC(=O)c2cccc(S(=O)(=O)N3CCN(C)CC3)c2)c1 | inactive: 1.97% |
| Cc1cc(NC(=O)Cn2cnc3sccc3c2=O)no1 | inactive: -2.57% |
| CCCCCCOC(=O)Cc1c(C)nc(N)[nH]c1=O | inactive: 17.2% |
| O=C(COC(=O)C1CC1)Nc1ccc(S(=O)(=O)N2CCOCC2)cc1 | inactive: 2.92% |
| COc1cc(CCC(=O)OCC(=O)Nc2ccc(C)cc2Cl)cc(OC)c1OC | inactive: 9.14% |
| NC(=O)NOCc1ccc(F)cc1Cl | inactive: 5.67% |
| CC(C)(C)c1nc(SCC(=O)NC2CCCC2)c2ccccc2n1 | inactive: -7.9% |
| Cc1ccccc1NC(=O)Cc1nnc(SCC(=O)NC2CCCC2)n1C | inactive: 8.18% |
| COCC(C)n1c(SCc2cc(C(=O)OC)c(C)o2)nc2ccccc2c1=O (centres undefined) | inactive: -6.67% |
| COc1ccc(C(N)c2csc(Nc3ccc(C(F)(F)F)cn3)n2)cc1 (centres undefined) | inactive: 2.69% |
| O=C(NCCN1CCOCC1)c1ccc(=O)n(Cc2ccc(Cl)cc2)c1 | inactive: -0.344% |
| CC(Oc1ccccc1Cl)C(=O)Nc1ccc(S(=O)(=O)N2CCOCC2)cc1 (centres undefined) | inactive: -4.64% |
| Cc1ccc([N+](=O)[O-])cc1Nc1nc(N2CCOCC2)nc(N2CCOCC2)n1 | inactive: 4.72% |
| CC(NC(=O)c1ccccc1)C(=O)N/N=C/c1cccc([N+](=O)[O-])c1 (centres undefined) | inactive: 3.43% |
| COc1cc(NC(=O)C/C(C)=N/NC(=O)C2CCCCC2)c(OC)cc1Cl | inactive: 16.4% |
| COc1cc(CN2CCN(Cc3ccc(SC)cc3)CC2)cc(OC)c1O | inactive: -6.87% |
| O=c1[nH]ncc(NCc2ccc(Cl)cc2)c1Cl | inactive: 0.749% |
| COC(=O)c1ccccc1N=Nc1c(N)[nH][nH]c1=O | inactive: -20% |
| O=C(Cc1ccc(O)cc1)NC1CCCCCC1 | inactive: -12.9% |

| SMILES | growth rescue (activation) |
| --- | --- |
| Nc1ccc(C(=O)OCc2nc3ccccc3s2)cc1 | inactive: 15.7% |
| Cc1csc(=Nc2ccccc2)n1C | inactive: -1.01% |
| O=C(NC1CCCc2c1cnn2-c1ccc(F)cc1F)c1ccccc1N1CCOCC1 (centres undefined) | inactive: -37.3% |
| Cn1cc(CCC(=O)NC2CC2)c2ccccc21 | inactive: -5.76% |
| COc1cccc(OCc2ccc(Cn3nc(NC(=O)NCCc4ccc(OC)c(OC)c4)c4ccccc43)cc2)c1 | inactive: 12.6% |
| CCCCNc1nc(=S)n(-c2ccccc2)c(C)c1C(C)=O | inactive: -7.63% |
| CCC(=O)Nc1ccc2oc(-c3cccnc3)nc2c1 | inactive: 1.11% |
| CCn1cc(C(=O)N2CCN(c3ccc(F)cc3)CC2)c2cc(OC)c(OC)cc2c1=O | inactive: 3.39% |
| CCOC(=O)c1ccc(N2C(=O)CC(N3CCC(C(=O)OCC)CC3)C2=O)cc1 (centres undefined) | inactive: -92.7% |
| COc1ccc(C(C)=O)cc1CC(=O)NC1CCCCCC1 | inactive: -2.65% |
| Cc1cccc(-c2noc(C(C)NC(=O)c3ccco3)n2)c1 (centres undefined) | inactive: 17.8% |
| CN(C)S(=O)(=O)c1ccc(C(=O)OCC(=O)c2ccc3c(c2)NC(=O)CO3)cc1 | inactive: 9.12% |
| O=C(CSc1nc2ccccc2c(=O)n1Cc1ccco1)NCCN1C(=O)CSC1=O | inactive: 38.2% |
| Cc1ccccc1C(=O)Nc1ccnn1C1CCN(CC2CC=CCC2)CC1 (centres undefined) | inactive: -6.73% |
| Cc1cccc(C(=O)OCC(=O)N2CCN(C(=O)c3ccco3)CC2)c1O | inactive: 11.4% |
| CSc1ccccc1NC(=O)CSc1nnc(COc2ccccc2)o1 | inactive: 17.3% |
| Cn1cnnc1SCC(=O)Nc1ccc(F)cc1F | inactive: -13.2% |
| CC1CN(C(=O)COC(=O)c2ccc(O)cc2)CC(C)O1 (centres undefined) | inactive: -20.8% |
| Cc1ccc2nc(Cl)c3nnnn3c2c1 | inactive: -18.6% |
| Cn1c(SCC(=O)N2CCN(C(=O)c3ccco3)CC2)nnc1-c1ccc(NS(C)(=O)=O)cc1 | inactive: -3.89% |
| COc1ccc(-c2noc(C3CCCN(C(=O)c4ccccc4OC)C3)n2)cc1 (centres undefined) | inactive: 21.2% |
